Measured values: article PMC9472757
These are yes or no findings as the source states them, for the method shown. Binding seen in cells or lysates may run through a third protein. Some results given as binding are weak or reduced against the parent protein; the word gives no strength.

The substances below were run against Flag-UBR5 (human) (UniProt O95071) (assay: co-IP).
“HA-ORF4b (MERS-CoV ORF4b protein, HA-tagged) (from UniProt K9N643 1-246)” was tested, and the binding was “binds”.

Each substance was assayed against Flag-ORF4b (MERS-CoV ORF4b protein, Flag-tagged) (MERS-CoV) (UniProt K9N643) (assay: co-IP).
“UBR5 (ubiquitin protein ligase E3 component N-recognin 5), endogenous (from UniProt O95071 1-2799) (enzyme)” was tested, and the binding was “binds”. “UBR5 T3 (aa 2464 to 2799), containing the HECT domain, MYC-tagged (from UniProt O95071 2464-2799) (domain or fragment)” was tested, and the binding was “binds”. “UBR5 T1 (aa 1 to 1264), MYC-tagged (from UniProt O95071 1-1264) (domain or fragment)” was tested, and the binding was “no binding”. For “UBR5 T2 (aa 1265 to 2463), MYC-tagged (from UniProt O95071 1265-2463) (domain or fragment)”, the binding was “no binding”. “HUWE1 (from UniProt Q7Z6Z7 1-4374) (enzyme)” was tested, and the binding was “no binding”.
